Laboratory results taken from PubChem BioAssay AID1768 (National Center for Advancing Translational Sciences (NCATS), 2009).
Hit rate of the full screen: of about 270,000 compounds, about 620 (0.23%) were called active. Inconclusive means that the source gave no clear call. Such entries were picked first, then a sample of the others. The call rests on the fitted dose curve; in most records, active means well fitted inhibition curve with a large enough effect in the polarisation, with a control signal flat (not every such curve was filed as active); inconclusive means small, poorly fitted or top-dose-only effect, or effect the other way, or a change in a side signal; inactive means no such curve, though single readings can be large or run the other way; the % refers to the polarisation. Potencies of inconclusive entries are doubtful fits and often do not repeat. “Side channel” marks fits to a control or component signal instead of the main read-out.

Target: Menin (Homo sapiens) (UniProt O00255)
Sequence of UniProt O00255 (O00255 whole entry, looked up): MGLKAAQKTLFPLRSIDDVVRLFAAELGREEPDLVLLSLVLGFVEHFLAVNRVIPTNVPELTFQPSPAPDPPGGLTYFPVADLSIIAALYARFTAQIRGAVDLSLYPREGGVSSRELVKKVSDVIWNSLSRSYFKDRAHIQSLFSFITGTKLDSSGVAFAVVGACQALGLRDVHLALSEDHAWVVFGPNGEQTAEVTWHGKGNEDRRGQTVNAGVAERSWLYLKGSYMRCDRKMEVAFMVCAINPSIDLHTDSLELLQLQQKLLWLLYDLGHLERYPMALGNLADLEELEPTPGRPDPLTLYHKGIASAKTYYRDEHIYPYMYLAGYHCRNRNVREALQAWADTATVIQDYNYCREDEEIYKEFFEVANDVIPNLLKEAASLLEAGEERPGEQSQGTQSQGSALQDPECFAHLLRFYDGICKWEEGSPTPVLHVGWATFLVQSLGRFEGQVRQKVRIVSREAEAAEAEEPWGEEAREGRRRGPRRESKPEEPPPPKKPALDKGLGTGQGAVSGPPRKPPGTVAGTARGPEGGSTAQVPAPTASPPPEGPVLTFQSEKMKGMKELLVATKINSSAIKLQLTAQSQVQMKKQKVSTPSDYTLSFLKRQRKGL
Test: qHTS Assay for Inhibitors Targeting the Menin-MLL Interaction in MLL Related Leukemias: Competition With Texas Red Labeled MLL-derived Mutant Peptide; on FP activity change, negative = inhibition: % of control where 0% means no effect
Conditions: fluorescence polarization; FP activity change, negative = inhibition: at 61.6 µM (top of the series)
Potency means the concentration at half of the fitted maximal effect; tags describe the fitted curve by direction and shape or compound fluorescence and quenching.

Structure (SMILES)	Potency	FP activity change, negative = inhibition
Cc1ccc(N(CC2CO2)S(=O)(=O)c2ccc(C)cc2)cc1 (stereo not drawn)	inconclusive: 5.01 µM [fluorescent, side channel, full curve]	
O=C(O)CCc1ccc(-c2ccccc2)n1CC(=O)O		inactive: -15.5%
CCOC(=O)C1=C(O)/C(=C/c2cc(OC)c(OC)c(OC)c2)SC1=Nc1ccc(OC)cc1	inconclusive: 22.4 µM [inhibitor, partial curve, poor fit]	
COc1ccc(OC)c(NC(=O)C(=O)N/N=C/c2ccccc2[N+](=O)[O-])c1	inconclusive: 8.91 µM [quencher, side channel, partial curve]	
Cn1c(=O)c2c(nc(Oc3ccc4ccccc4c3)n2C)n(C)c1=O	inconclusive: 12.6 µM [fluorescent, side channel, partial curve]	
CC1=CC(=O)N(c2cccc(C(F)(F)F)c2)C1c1ccc(Cl)cc1 (stereo not drawn)	inconclusive: 2.82 µM [inhibitor, full curve, poor fit]	
CC1=Nc2ccccc2/C1=C/c1c(N)n2c(S(=O)(=O)C(C)C)nsc2nc1=O	inconclusive: 20 µM [quencher, side channel, single point]	
Nc1cc(-c2cccc(Br)c2)nn1Cc1ccccc1	inconclusive: 15.8 µM [quencher, side channel, partial curve]	
CC(C)CN(c1ccccc1)S(=O)(=O)c1nnc(NC(=O)C(C)C)s1	inconclusive: 25.1 µM [fluorescent, side channel, single point]	
Cc1sc2nc(C(C)C)nc(SCC(=O)N3CCN(C(=O)c4ccco4)CC3)c2c1C	inconclusive: 8.91 µM [fluorescent, side channel, partial curve]	
CCOc1ccc(OCC)c(NC(=O)c2[nH]c(C)c(C(C)=O)c2C)c1	inconclusive: 15.8 µM [inhibitor, partial curve]	
CCc1cccc(CC)c1NC(=O)C(NS(=O)(=O)c1cccs1)c1ccccc1 (stereo not drawn)	inconclusive: 28.2 µM [inhibitor, single point]	
O=C(COC(=O)c1cccc(S(=O)(=O)N2CCOCC2)c1)Nc1nc(-c2ccccc2Cl)cs1	inconclusive: 39.8 µM [inhibitor, single point]	
NS(=O)(=O)c1cccc(NC(=O)COc2ccc([N+](=O)[O-])cc2)c1		inactive: 11.7%
Cc1nn(-c2ccccc2)c(OC(=O)c2cccs2)c1S(=O)(=O)c1ccc([N+](=O)[O-])cc1	inconclusive: 39.8 µM [quencher, side channel, single point]	
Cc1ccc(C(=O)Nc2ccc(N3CCOCC3)cc2N2CCOCC2)cc1	inconclusive: 4.47 µM [quencher, side channel, single point]	
COc1cc2c(C(=O)O)c(C)n(CC(C)C)c2c2ccccc12	inconclusive: 22.4 µM [quencher, side channel, single point]	
O=c1oc2ccc(F)cc2c2c1C1O[C@](c3ccsc3)(Cc3c1ccc1ccccc31)O2	inconclusive: 3.16 µM [quencher, side channel, partial curve]	
Cc1ccc(-c2noc(CN(C(=O)c3ccc4c(c3)OCO4)C(C)C)n2)cc1	inconclusive: 17.8 µM [fluorescent, side channel, partial curve]	
COc1ccc(NC(=O)c2ccccc2Cl)c(NC(=O)c2ccco2)c1	inconclusive: 11.2 µM [quencher, side channel, partial curve]	

Structure (SMILES)	Potency	FP activity change, negative = inhibition
COc1ccc2nc(N3C(=O)/C(=C/c4ccccc4)NC3=S)sc2c1	inconclusive: 14.1 µM [quencher, side channel, partial curve]	
Cc1ccccc1CSc1nnc(NC(=O)Cc2cccs2)s1	inconclusive: 20 µM [quencher, side channel, partial curve]	
Oc1c(Br)cc(Cl)cc1C=Nc1ccc(N2CCOCC2)cc1	inconclusive: 28.2 µM [quencher, side channel, single point]	
CCOC(=O)c1sc(NCc2ccco2)c(-c2nc3ccccc3s2)c1N	inconclusive: 8.91 µM [quencher, side channel, partial curve]	
Cc1ccc(N(Cc2ccccc2O)C(=O)c2ccccc2F)cc1		inactive: 0.0013%
CCOC(=O)C1(CC2CCCCO2)CCN(C(=O)Nc2ccccc2CC)CC1 (stereo not drawn)	inconclusive: 0.708 µM [fluorescent, side channel, full curve]	
CCOC(=O)N1CCN(Cc2nc(Cc3cccc(C(F)(F)F)c3)no2)CC1	inconclusive: 15.8 µM [fluorescent, side channel, partial curve]	
CCN1CCN(CCOc2ccccc2-c2ccccc2)CC1		inactive: -22.8%
Cc1cc2c(cc1C)CSC(c1ccccc1O)SC2	inconclusive: 28.2 µM [quencher, side channel, single point]	
Cc1cccc(CNC(=O)CC2C(=O)NCCN2C2CCCC2)c1 (stereo not drawn)	inconclusive: 2.82 µM [fluorescent, side channel, full curve]	
O=c1c2ccccc2nc(/C=C/c2c[nH]c3ccccc23)n1CCO	inconclusive: 14.1 µM [quencher, side channel, partial curve]	
CCOc1ccc(-c2[nH]ncc2-c2ccc(OC)c(OC)c2)c(O)c1	inconclusive: 25.1 µM [quencher, side channel, single point]	
NC(=S)N=Nc1c(O)n(Cc2ccc(Br)cc2)c2ccccc12	inconclusive: 8.91 µM [quencher, side channel, partial curve]	
O=C(C(Cc1ccccc1)N1C(=O)C2C3CCC(C3)C2C1=O)N1CCCCC1 (stereo not drawn)	inconclusive: 39.8 µM [inhibitor, single point]	
C/C(=N\Nc1ccc(F)cc1F)c1ccc(Br)s1	inconclusive: 22.4 µM [quencher, side channel, partial curve]	
O=C(Nc1ccccc1SCC1CSc2nc3ccccc3c(=O)n21)c1cccc(Cl)c1 (stereo not drawn)	inconclusive: 28.2 µM [inhibitor, single point]	
O=C(Nc1ccc2sc3ccccc3c(=O)c2c1)c1ccccc1Cl	inconclusive: 31.6 µM [inhibitor, partial curve]	
Cc1ccc(NC(=O)Nc2nc3ccccc3s2)cc1NC(=O)Nc1nc2ccccc2s1	inconclusive: 3.16 µM [quencher, side channel, single point]	
Cc1ccc(-c2nc(-c3ccncc3)no2)c(C)c1	inconclusive: 35.5 µM [fluorescent, side channel, single point]	
CCOC(=O)c1nnc(-c2ccccc2)nc1Oc1ccc(Cl)cc1		inactive: 10.4%

Structure (SMILES)	Potency	FP activity change, negative = inhibition
COc1cccc(C2C(C(=O)c3cc4ccccc4o3)=C(O)C(=O)N2c2cc(C)on2)c1OC (stereo not drawn)	inconclusive: 14.1 µM [quencher, side channel, partial curve]	
COCCN(C(=O)c1csnn1)C(C(=O)NC1CCCCC1)c1ccc(Cl)cc1 (stereo not drawn)	inconclusive: 2.51 µM [inhibitor, full curve, poor fit]	
COc1cccc2sc(Nc3nc(-c4cc5ccccc5oc4=O)cs3)nc12	inconclusive: 10 µM [quencher, side channel, partial curve]	
C=CCNC(=O)/C(=C\c1ccc(OC)cc1)NC(=O)c1ccc([N+](=O)[O-])cc1		inactive: 13%
CCC(=O)c1cn(CC(=O)Nc2cc(C)ccc2C)c2ccccc12	inconclusive: 31.6 µM [inhibitor, single point]	
O=C(COC(=O)c1ccccn1)c1ccc([N+](=O)[O-])cc1	inconclusive: 28.2 µM [quencher, side channel, single point]	
Cc1ccc2c(n1)sc1c(N)ncnc12		inactive: -12.7%
O=C(N/N=C/c1ccc([N+](=O)[O-])o1)c1cn(-c2ccccc2)nc1-c1ccc(Cl)cc1	inconclusive: 5.62 µM [quencher, side channel, partial curve]	
Cc1ccc2nc(-c3cc(N)cc(N)c3)oc2c1	inconclusive: 20 µM [quencher, side channel, partial curve]	
CCn1c(CCCOc2ccc(Cl)cc2Cl)nnc1SCC(=O)Nc1cccc(F)c1	inconclusive: 7.94 µM [fluorescent, side channel, single point]	
CCOC(=O)N1CCC(NC(=O)c2cnn3c2NC(c2ccco2)CC3C(F)(F)F)CC1 (stereo not drawn)	inconclusive: 25.1 µM [fluorescent, side channel, partial curve]	
Cc1ccc(NC(=S)N2CCN(c3ccccn3)CC2)c(C)c1	inconclusive: 35.5 µM [fluorescent, side channel, single point]	
CCOC(=O)[C@H](Cc1ccc(O)cc1)NC(=O)c1ccccc1		inactive: 10.5%
Cc1ccc(NC(=O)c2snc3ccc(Cl)cc23)cc1C	inconclusive: 15.8 µM [quencher, side channel, partial curve]	
CC1CC=C2C(C#N)=C(N)C(C#N)(C#N)C(c3cccs3)C2C1 (stereo not drawn)		inactive: -1.29%
CC[C@H](C)N		inactive: -5.23%
C[C@@H]1C(c2cccc(Cl)c2)=NN(c2ccc(Br)cc2)[C@H]1C(=O)N1CCOC1=O	inconclusive: 4.47 µM [quencher, side channel, full curve, poor fit]	
CCOC(=O)C1(Cc2ccc(Cl)cc2)CCN(Cc2ccon2)CC1	inconclusive: 10 µM [fluorescent, side channel, partial curve]	
